# In PMC7819943, “Rice protein-binding microarrays: a tool to detect cis-acting elements near promoter regions in rice”:
# The other results are listed elsewhere or left out.
# Target: T1, OsWOX13 (Oryza sativa, UniProt Q5QMM3 1-267)
# T1 sequence: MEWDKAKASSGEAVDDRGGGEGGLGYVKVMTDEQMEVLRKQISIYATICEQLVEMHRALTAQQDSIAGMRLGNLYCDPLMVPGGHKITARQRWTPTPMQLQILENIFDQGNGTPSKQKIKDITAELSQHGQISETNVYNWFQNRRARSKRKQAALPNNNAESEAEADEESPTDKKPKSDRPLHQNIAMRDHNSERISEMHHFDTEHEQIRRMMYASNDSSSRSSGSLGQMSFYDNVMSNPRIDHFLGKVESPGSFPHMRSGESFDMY
# Assay: protein-binding microarray (RPBM); PBS, 2% BSA, 51.3 ng/ul salmon testes DNA, 50 uM zinc acetate, 200 nM TF, 25 C, 1 h; high values mean tight binding
# Conditions: protein: recombinant; tags: N-terminal polyhistidine and DsRed monomer fusion (pET32a); label: CyDye5-dUTP incorporated in the synthesized complementary strand; 3' TTTTT single-stranded linker to array surface; dsDNA, one strand shown
# In short: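 The binding signal for each feature is its fluorescence intensity in arbitrary units. An Axon 4000B scanner was used to read a custom Agilent array that had been made double-stranded with Cy5-dUTP primer extension, blocked with 2% BSA, incubated at 25 °C for 1 h with 200 nM protein in PBS, 2% BSA, salmon testes DNA and 50 µM zinc acetate, and washed. The protein was an N-terminal polyhistidine–DsRed transcription factor fusion from E. coli BL21-CodonPlus, purified on Ni–NTA.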
row,Sequence,binding signal
1,GCTGTTTATTTATATTTATTTATTGTGTATTTGATATCCACGGAGTCACCTAGTGCAG,6200 fluorescence intensity (a.u.)
2,ATGACAACAACAATTATTGTTACAATTATTGCATATGGTACGGAGTCACCTAGTGCAG,7160 fluorescence intensity (a.u.)
3,CGTATTAATTCACTACCATTACAATCACTAATATACAGGCCGGAGTCACCTAGTGCAG,4030 fluorescence intensity (a.u.)
4,AACCAATCAATCTAGAATTCCACGCATATTCATTAGTTTCCGGAGTCACCTAGTGCAG,23600 fluorescence intensity (a.u.)
5,TTTAATGTTAGATTTAATAAAATTAATTTATTACTATAAACGGAGTCACCTAGTGCAG,13700 fluorescence intensity (a.u.)
6,CCAAATTGGATCCAAATTTATTTTCCACGATCCAATTTGCCGGAGTCACCTAGTGCAG,37600 fluorescence intensity (a.u.)
7,ACATCTAAATTACTCCTGGACTCCTCGTCGTCGTGAAAGGCGGAGTCACCTAGTGCAG,3160 fluorescence intensity (a.u.)
8,CTGGTTCTTGATTATTATTAGGATTAGTTTGTTCCTTTGTCGGAGTCACCTAGTGCAG,16900 fluorescence intensity (a.u.)
9,CTTAAATTTTACAATACCGTTTATATAAAGATGGTTTTACCGGAGTCACCTAGTGCAG,6810 fluorescence intensity (a.u.)
10,TAAATATGACCTAATTAAGTCTCATCATGAGCCGCTACATCGGAGTCACCTAGTGCAG,6180 fluorescence intensity (a.u.)
11,TTGACTGGTGGATTATTATTATTATGCTGGAATTTGACCACGGAGTCACCTAGTGCAG,27900 fluorescence intensity (a.u.)
12,CTTCATGATGTGATTTAAACTCTAGTTAAGATTTAGATTTCGGAGTCACCTAGTGCAG,8910 fluorescence intensity (a.u.)
13,CTGAAACTGCAACTAACTGACACGATGATGATGTAGGTGTCGGAGTCACCTAGTGCAG,14700 fluorescence intensity (a.u.)
14,ATAGTTAATGCTCAATTAATCATGAGCCAATGGCTCACCTCGGAGTCACCTAGTGCAG,17800 fluorescence intensity (a.u.)
15,TGGGTCAACTCAATCAAGACCAGTCAAACTAAGCAGAAAGCGGAGTCACCTAGTGCAG,6050 fluorescence intensity (a.u.)
16,GTCTATATTTAATATTCTAAATTAGCGTCTAAACATCCGACGGAGTCACCTAGTGCAG,7620 fluorescence intensity (a.u.)
17,TTGACAGATAATGTGATTCTTAGGGCCCCTTGTATCATTCCGGAGTCACCTAGTGCAG,18400 fluorescence intensity (a.u.)
18,CGCCTGCAAGATTGACTCTTGCATAAAAGCATGCTCTCTCCGGAGTCACCTAGTGCAG,13300 fluorescence intensity (a.u.)
19,TAGGATTTAATTTGTGCAGTTGTACGCACGTAATCCAAGTCGGAGTCACCTAGTGCAG,6900 fluorescence intensity (a.u.)
20,AATCAATTAATTCATTTAGGATCTAAACTTAGGTTACGGACGGAGTCACCTAGTGCAG,32600 fluorescence intensity (a.u.)
21,TTTTACCCCGTTTTCGCTAATTAATTCTGTATTTATGGCACGGAGTCACCTAGTGCAG,4140 fluorescence intensity (a.u.)

row,Sequence,binding signal
1,TCTTAACTAATCAAAATAGGTTAAAATAGGTACTTCGATGCGGAGTCACCTAGTGCAG,12200 fluorescence intensity (a.u.)
2,CCTGACATCTCTCAATCGGACGGTGGATACCACCTCACCGCGGAGTCACCTAGTGCAG,3620 fluorescence intensity (a.u.)
3,TGTTGTGATTGGTTGAGAAATGTGGGTATGTGAGAAAATACGGAGTCACCTAGTGCAG,15200 fluorescence intensity (a.u.)
4,CACATTAATGGCTGATCTGTTATACCCACCTACTCTGGACCGGAGTCACCTAGTGCAG,3390 fluorescence intensity (a.u.)
5,TTACACGCAATCTGTATAATTAGTTTTGTTCTTTGTCTATCGGAGTCACCTAGTGCAG,3330 fluorescence intensity (a.u.)
6,GTTGAGGGATAATAATTGGACTTTTACCTAGATGTTTCGACGGAGTCACCTAGTGCAG,6460 fluorescence intensity (a.u.)
7,TGTAATTATAATTTATTTTGTGATGAGTTGTTTTATCACTCGGAGTCACCTAGTGCAG,55800 fluorescence intensity (a.u.)
8,GTGGATTGAATCCCCTACGGTTGAGCCGCGAGCGCTTCATCGGAGTCACCTAGTGCAG,8380 fluorescence intensity (a.u.)
9,GTTTAATATTTATAATTAGCGTCCAAACATCCGATGTGATCGGAGTCACCTAGTGCAG,17500 fluorescence intensity (a.u.)
10,ACATAATTTATTGTCTGGTTTTGGCTAAAGAGAAATTAAACGGAGTCACCTAGTGCAG,14100 fluorescence intensity (a.u.)
11,CCGATTCTTTTGTCAAATTTACAATAAACATATACTGCATCGGAGTCACCTAGTGCAG,3970 fluorescence intensity (a.u.)
12,AAGCCTAATTAATCCATCCTTAGCAGATGTGGGTTACCGTCGGAGTCACCTAGTGCAG,8630 fluorescence intensity (a.u.)
13,ACTGATTTGTTTTATTGTTTTGATTTTAATCCTCTCAATTCGGAGTCACCTAGTGCAG,38800 fluorescence intensity (a.u.)
14,CAAAATTGAGGGTAGTTTTGGCCCAGATAAACCTCCTCCACGGAGTCACCTAGTGCAG,5910 fluorescence intensity (a.u.)
15,GCAAAATTGGTTTCATCAACTATTGAGTGGGTGTGCACTGCGGAGTCACCTAGTGCAG,9640 fluorescence intensity (a.u.)
16,TGCTTGATTTGTCGAATAACAGCCTGTCTGGGAGCATGCCCGGAGTCACCTAGTGCAG,24300 fluorescence intensity (a.u.)
17,ATCATGATTGTAAGGTTGGTGTCTATAGTCTTCCAATTATCGGAGTCACCTAGTGCAG,24400 fluorescence intensity (a.u.)
18,AATGATTAGCATTCGCGTGGCTTCAGACGAGGAGCCTATACGGAGTCACCTAGTGCAG,13500 fluorescence intensity (a.u.)
19,ATCTGACCCAGCAATCAACTCCTACGGTCCAGATTCAATGCGGAGTCACCTAGTGCAG,3820 fluorescence intensity (a.u.)
20,AAGTTAATTTCATTTCGAGCATGTTTTATTGCCAAAGTTTCGGAGTCACCTAGTGCAG,10700 fluorescence intensity (a.u.)
21,AACGGTATTCAATCAATCACTATCACTTACATACACAATCCGGAGTCACCTAGTGCAG,42200 fluorescence intensity (a.u.)
